Among all 310,000 compounds or so, about 14,000 (4.5%) showed an effect of 50% or more. Effects have a minus sign here. The list shows a part of the results.
What follows are molecules tested against human ether-à-go-go-related gene (hERG) potassium channel (human, UniProt Q12809) (assay: primary screen, population patch clamp on CHO cells stably expressing hERG).
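Note: peak tail current of the secondary pulse compared with the same well before compound.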

human ether-à-go-go-related gene (hERG) potassium channel, sequence (Q12809 whole entry, looked up): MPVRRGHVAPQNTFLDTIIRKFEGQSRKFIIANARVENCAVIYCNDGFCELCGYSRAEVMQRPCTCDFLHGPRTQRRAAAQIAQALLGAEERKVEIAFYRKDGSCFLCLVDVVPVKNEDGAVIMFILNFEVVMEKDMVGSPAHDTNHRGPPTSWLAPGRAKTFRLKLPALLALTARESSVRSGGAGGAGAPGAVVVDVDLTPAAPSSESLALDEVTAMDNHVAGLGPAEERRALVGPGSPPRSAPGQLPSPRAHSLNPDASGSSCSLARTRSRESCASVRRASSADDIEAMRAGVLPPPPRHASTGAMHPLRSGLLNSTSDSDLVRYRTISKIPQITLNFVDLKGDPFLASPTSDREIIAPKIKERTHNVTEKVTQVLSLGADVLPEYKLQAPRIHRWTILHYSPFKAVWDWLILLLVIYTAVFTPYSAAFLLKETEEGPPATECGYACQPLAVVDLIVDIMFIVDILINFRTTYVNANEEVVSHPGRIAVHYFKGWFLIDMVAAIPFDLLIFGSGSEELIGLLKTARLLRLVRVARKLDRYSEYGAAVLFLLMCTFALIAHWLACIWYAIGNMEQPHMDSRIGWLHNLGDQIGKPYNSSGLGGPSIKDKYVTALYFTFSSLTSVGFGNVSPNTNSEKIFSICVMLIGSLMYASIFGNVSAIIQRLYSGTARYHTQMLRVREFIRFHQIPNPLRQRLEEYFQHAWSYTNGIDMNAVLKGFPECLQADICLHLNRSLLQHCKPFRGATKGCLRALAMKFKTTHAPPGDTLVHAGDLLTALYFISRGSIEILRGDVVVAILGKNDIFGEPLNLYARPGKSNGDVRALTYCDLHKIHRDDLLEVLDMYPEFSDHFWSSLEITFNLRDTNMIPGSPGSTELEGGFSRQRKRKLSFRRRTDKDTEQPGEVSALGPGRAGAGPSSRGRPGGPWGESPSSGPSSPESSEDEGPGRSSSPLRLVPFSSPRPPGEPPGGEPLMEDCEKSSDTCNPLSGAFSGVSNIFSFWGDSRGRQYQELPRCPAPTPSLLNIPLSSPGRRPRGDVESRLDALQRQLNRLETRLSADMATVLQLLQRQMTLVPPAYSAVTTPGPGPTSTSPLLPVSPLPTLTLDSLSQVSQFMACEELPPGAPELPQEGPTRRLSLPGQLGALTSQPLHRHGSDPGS

Point of comparison: `Cc1nn(-c2ccccc2)cc1/C=N/NC(=O)c1cccs1`, “hERG current change (%, negative = inhibition) at 10uM” value 1.84%. Against it:
- CCCCCCC(=O)NCC(=O)OCC(=O)c1ccccc1 — lower, -18.1%
- CCCc1c(C)nn(C(=O)/C(C#N)=N/Nc2ccccc2[N+](=O)[O-])c1C — higher, 21.1%
- Cc1ccc(CNc2ncc(-c3ccc4c(c3)OCO4)n2C)cc1.O=C(O)C(=O)O — lower, -59%
- Br.Oc1ccc(-c2cn3ccccc3n2)cc1 — higher, 11.4%
- Cc1ccc(OCCNCC(O)COc2ccccc2)cc1.O=C(O)C(=O)O (centres unmarked) — lower, -44.2%
- COc1cc(CCC(=O)Nc2cccc(C(F)(F)F)c2)cc(OC)c1OC — lower, -2.51%
- Cc1ccccc1OCC1Cc2c(nc(N)c(C#N)c2N)O1 (centres unmarked) — lower, -1.3%
- CCN(CC)c1cc(C)c(C#N)c2nc3ccccc3n12 — lower, -1.47%
- Cc1cc(OCc2nnc(SC(C)C(=O)O)n2-c2ccccc2)ccc1Cl (centres unmarked) — higher, 21.7%
- Cc1cc(C(=O)NCc2cc(F)cc3c2OCOC3)nn1C — higher, 23.1%
- CCOc1ccc(CCNS(=O)(=O)c2ccc3c(c2)NC(=O)CO3)cc1OCC — higher, 5.62%
- COc1cccc(N2CCN(C(=O)c3oc4ccccc4c3NC(=O)Cc3ccc(OC)c(OC)c3)CC2)c1 — lower, -14.1%
- Cn1cc(Br)c(C(=O)NNC(=O)c2ccc(Cl)cc2)n1 — lower, -13.2%
- CNC(=O)Nc1cc(NC(=O)NC)cc(C(F)(F)F)c1 — higher, 5.81%
- COc1ccc(Cl)cc1NC(=O)C1Cc2ccccc2CN1S(C)(=O)=O (centres unmarked) — higher, 14.7%
- CC1CC(C)CN(CCCNC(=O)Cn2ncc3c([nH]c4ccccc43)c2=O)C1 (centres unmarked) — lower, -18%
- CNC(=O)C1CCN(S(=O)(=O)c2c(C)noc2/C=C/c2ccc(C)cc2)CC1 — higher, 10.5%
- O=C(COC(=O)C1(c2ccc(F)cc2)CCCC1)NCc1ccc2c(c1)OCO2 — lower, -18.3%
- Cc1ccc(CSc2nnc(-c3ccc(S(=O)(=O)N4CCCC4)cc3)o2)cc1 — higher, 3.2%
- O=C(Cc1c[nH]c2ccccc12)OCC(=O)c1ccccc1 — higher, 11.1%
- O=C(COC(=O)Cn1cnc2ccccc21)Nc1cc(S(=O)(=O)N2CCOCC2)ccc1Cl — lower, -0.439%
- CCCOC(=O)c1ccc(Oc2cn[nH]c2-c2ccc(OCC)cc2O)cc1 — higher, 8.01%
- Cc1nc(CNC(=O)CC2C(=O)NCCN2Cc2ccoc2)nc2c1CCCC2 (centres unmarked) — higher, 6.51%
- Cc1ccc(-c2ccc(/C=N/NC(N)=S)o2)cc1 — lower, -23.4%
- Cl.O=C(Nc1ncccc1Cl)c1ccc2c(c1)OCCO2 — higher, 2.17%
- CCOC(=O)C1=C(CN2CCc3ccccc32)NC(=O)NC1c1cccc([N+](=O)[O-])c1 (centres unmarked) — lower, -7.46%
- COc1ccc(C(CNC(=O)COc2ccc([N+](=O)[O-])cc2)N2CCCCC2)cc1 (centres unmarked) — lower, -69.9%
- COc1ccc(CNC(=O)C2CCCN(S(=O)(=O)c3ccccc3)C2)cc1 (centres unmarked) — lower, -5.16%
- Cc1cccc(C)c1NC(=O)C(C)c1ccc(-c2ccccc2)c(F)c1 (centres unmarked) — lower, 0.222%
- Cc1[nH]n(C(N)=S)c(=O)c1N=Nc1cc(-c2ccc(Br)cc2)[nH]n1 — higher, 24.7%
- CCOC(=O)C1(Cc2cccc(F)c2)CCN(C(=O)Cc2cccnc2)CC1 — lower, -9.65%
- O=C1NC(=Nc2cccc(O)c2)S/C1=C\c1cccnc1 — lower, 0.636%
- COc1cc(NC(=O)c2cccs2)c(OC)cc1NC(=O)CCC(=O)Nc1ccc(C)cc1 — lower, -14.4%
- Cc1ccc(C)c(N)c1 — higher, 12.1%
- Cc1ccc(S(=O)(=O)N(C)c2ccc(C(=O)Nc3c(C)n(C)n(-c4ccccc4)c3=O)cc2)cc1 — lower, 0.214%
- CCCCc1nn(-c2cc(Cl)ccc2OC)c2c1C(=O)CC(C)(C)C2 — lower, -39.4%
- CNc1nccc(-c2ccc(F)cc2)c1C#N — higher, 6.25%
- O=C(Nc1ccc(Cl)cc1)OC(CN1CCCCC1)C(F)(F)F (centres unmarked) — lower, 0.427%
- COc1ccc(N2CCN(C(=O)COC(=O)c3cccc(S(=O)(=O)Nc4ccccc4OC)c3)CC2)cc1 — lower, -40.2%
- CCOC(=O)CSc1ccc2nnc(-c3ccccc3)n2n1 — lower, -39.3%
- O=C(CNC(=O)c1cccs1)c1ccc([N+](=O)[O-])cc1 — lower, -18.4%
- CC/C(=N\NC(=O)c1ccc(Br)cc1)c1ccccc1 — higher, 11.4%
- CCOc1ccc2nc(SC(CC)C(=O)Nc3cc(C)on3)sc2c1 (centres unmarked) — higher, 22.8%

Source: article PMC4336329 (PLoS ONE, 2015)
